Among all 46,000 compounds or so, about 60 (0.1%) were called active. About 3% were inconclusive and are not listed. Calls follow the shape of the dose curve; as a rule, active = well fitted inhibition curve with a large enough effect; inconclusive = small, poorly fitted or top-dose-only effect; inactive = no such curve, though single readings can be large or run the other way. Some of the results follow.
Assay: Primary qHTS assay for Inhibitors of ovarian cancer metastasis using an organotypic tumor microenvironment (TME) model. Also: nearly all actives have a fitted effect of over 65% in size.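 As to activity change, negative = inhibition: plate controls were DMSO wells for no effect and tomatine positive control wells for full effect.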
Conditions: SKOV3ip1-GFP adhesion/invasion on 3D omental model, fluorescence; series mostly up to 45.8 µM; activity change, negative = inhibition: at the top concentration
How it was run: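 Primary human omental fibroblast/mesothelial 3D culture pre-formed 48 h. SKOV3ip1-GFP cells added with compounds (0.36-46 umol/L), incubated 2 h RT/16 h 37 C, fixed; GFP cells quantified at 488/509 nm.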

Activity change, negative = inhibition, inactive:
Cc1ccc2ncc(C(=O)NC(C)c3ccccc3)c(=O)n2c1 (stereo not drawn) -0.713%, Cc1ccc(CNC(=O)c2cnc3c(-c4ccccc4)c(C)nn3c2C)o1 9.1%, Cc1ccc(C(=O)Nc2nnc(S(=O)(=O)N3CCN(c4ccc(F)cc4)CC3)s2)cc1 -13.3%, Cc1ccc(CN2CCCn3nc(C(=O)NCc4cc(C)ccc4C)cc3C2=O)cc1 -2.89%, COc1cc(NC(=O)NCC2CCN(Cc3ccc(C)cc3)CC2)cc(OC)c1OC -25.1%, Cc1ccc(N2C(=O)CS(=O)(=O)C23C(=O)N(C)c2ccccc23)cc1F (stereo not drawn) -8.96%, Cc1ccc(N2CCN(C(=O)c3c(C)oc4ncnc(N5CCOCC5)c34)CC2)c(C)c1 4.7%, CCOc1ccc(NC(=O)CSc2nnc(-c3ccncc3)n2-c2ccccc2)cc1 7.11%, COCCNC(=O)CSc1nc2cc3c(cc2c(=O)n1Cc1ccc(C(=O)NCCc2ccc(OC)c(OC)c2)cc1)OCO3 -2.4%, O=C(NCCc1ccccc1)C(=O)NCC(c1ccco1)S(=O)(=O)c1ccccc1 (stereo not drawn) -7.14%, COCCCNC(=O)CCC(=O)NNc1nc2ccccc2c2nc(-c3ccccc3)nn12 14.8%, CCc1cccc(NC(=O)CSc2ncc3c(n2)-c2ccccc2N(CC)S3(=O)=O)c1 -12.5%, COc1ccc(CNC(=O)c2ccc(CSc3nc4ccncc4n3Cc3ccccc3F)cc2)cc1 6.02%, Cc1ccc(C)c(-n2cc(-c3ccccc3)nc2SCC(=O)Nc2ccccc2)c1 3.16%, Cc1nc(N2CCCC2)ncc1C(=O)N1CCN(c2ccc(Cl)cc2)CC1 -7.96%, COc1ccc(NC(=O)Cn2c(=O)n(Cc3ccccc3)c(=O)c3oc4ccccc4c32)cc1Cl -9.41%, CCOc1ccc(Nc2ncnc3c2cnn3-c2ccc(F)cc2)cc1 3.22%, CCOC(=O)c1ccccc1NC(=O)Cn1c(=O)n(CCCC(=O)NCc2ccc3c(c2)OCO3)c(=O)c2ccccc21 7.07%, O=C(CSc1nc2c([nH]c3ccccc32)c(=O)n1-c1ccc(Cl)cc1)N1CCCCCC1 16.8%, COc1cccc(-c2csc(-c3c(N)c(C(=O)c4ccccc4)n4ccccc34)n2)c1 -3.59%, Cc1ccnc(NC(=O)c2c(C)oc3ncn(CC(C)C)c(=O)c23)c1 10.2%, COc1ccc(-c2cc3nc(C)c(CCC(=O)Nc4cccc(C(F)(F)F)c4)c(C)n3n2)c(OC)c1 23.7%, CCc1ccc(-c2nc(CN3CCCC(C(=O)NCc4ccc(C)cc4)C3)c(C)o2)cc1 (stereo not drawn) 3.44%, Cc1ccc(C(=O)Nc2ccccc2C(=O)O)cc1S(=O)(=O)N1CCCCCC1 1.69%, CCCCCOc1ccc(NC(=O)Cc2csc(C)n2)cc1 -6.17%, O=C(Nc1sc2c(c1C(=O)Nc1ccc(Cl)cc1)CCCC2)c1cccs1 2.6%, Cc1cc(C)c(NC(=O)CN2c3ccccc3S(=O)(=O)c3ccccc32)c(C)c1 0.76%, Clc1ccc2nsnc2c1NC1=NCCN1 -0.564%, COCC(C)NC(=O)c1cnn2c(C(F)F)cc(-c3ccccc3)nc12 (stereo not drawn) 4.24%, COc1cc(OC)c(NC(=O)C(NS(=O)(=O)c2cccc3nsnc23)c2ccccc2)cc1Cl (stereo not drawn) 1.46%, COC(=O)C1=CO[C@@H](O)[C@@H]2C(CO)=CC[C@@H]12 -5.62%, CCOc1ccc(NC(=O)c2cnn(-c3ccc(C)c(Cl)c3)c2C2CCNCC2)cc1 -3.58%, Cc1ccc(CN2COc3cc(C)c4c(oc(=O)c5ccccc54)c3C2)cc1 9.71%, Cc1cc(Nc2cc(N3CCN(C)CC3)nc(Sc3ccc(NC(=O)C4CC4)cc3)n2)n[nH]1 -26.5%, COc1ccc(-c2[nH]c(-c3ccccc3)nc2SCC(=O)Nc2ccc3c(c2)OCCO3)cc1 -11.9%, CCOc1cc(C2NC(=O)c3c(sc4c3CCN(C)C4)N2)ccc1OC(=O)c1ccccc1Cl (stereo not drawn) -2.56%, Cc1ccc2[nH]c(C(=O)Nc3ccccc3)cc2c1 11.9%, CC(C)Oc1ccc2c(=O)c(-c3ccccc3)coc2c1 -9.23%, O=C(NC1CC(=O)N(c2ccc3c(c2)OCCO3)C1)c1c(F)cccc1Cl (stereo not drawn) -5.33%, O=C(NCCc1csc(-c2ccc(F)cc2)n1)c1cccs1 -2.97%, Cc1ccc(S(=O)(=O)CCC(=O)Nc2ccc(Br)cc2C)cc1 -0.285%, Cc1ccc(-c2nn(-c3ccc(F)cc3F)c3c2cnc2c(F)cccc23)cc1 -5.59%, Cc1ccc(NC(=O)CSc2nc3ccccc3c3nc(CCc4c(C)n[nH]c4C)nn23)c(C)c1 1.97%, COCCNc1oc(-c2ccc(COc3ccc(OC)cc3)o2)nc1C#N 2.11%, Cc1ccc2c(c1)c(=O)c(C(=O)c1ccc3c(c1)OCO3)cn2Cc1cccc(F)c1 0.976%, Cc1ccc(C(=O)CSc2ncc3c(n2)-c2ccccc2N(Cc2ccc(Cl)cc2)S3(=O)=O)cc1 -3.95%, CCCCOc1ccc(C(=O)Nc2ccc(F)cc2F)cc1 -15.7%, Cc1nc2c(C(=O)O)cnn2c(C)c1Cc1ccccc1 -6.69%, CCCc1nn2c(=O)cc(COC(=O)c3ccc(NC(=O)CCc4ccccc4)cc3)nc2s1 -8.24%, Cc1ccccc1C(=O)Nc1nc2nc(C)c(C)c(=O)n2[nH]1 3.27%, COc1cccc(NC(=O)c2sc3nc4n(c(=O)c3c2C)CCC4)c1 -13.6%, Cc1cc2cc3c(C)cc(=O)oc3c(C)c2o1 5.84%, CCCCOc1ccc(CNC(=O)c2ccc(-c3nc(CN4CCc5ccccc54)c(C)o3)cc2)cc1 -17.6%, CC(=O)Nc1ccccc1-c1nc2ccccc2n(CC(=O)c2ccc(Br)cc2)c1=O -22.3%, CC1=C(C(N)=O)C(c2ccc(C)cc2)n2nc(SCc3ccccc3F)nc2N1 (stereo not drawn) 9.95%, CCOC(=O)c1cccc(NC(=O)c2cc(S(=O)(=O)N3CCCC(C)C3)cn2C)c1 (stereo not drawn) 4.59%, COc1cccc(-n2cc(C(=O)Nc3cc(OC)c(OC)c(OC)c3)c3ccccc3c2=O)c1 9.04%, COC(=O)CNC(c1ccccc1)c1cc(Br)ccc1NC(=O)c1ccccc1 (stereo not drawn) -0.567%, CCOC(=O)C1CCCN(C(=O)Cn2ncc3c(C)n(Cc4ccccc4F)c(C)c3c2=O)C1 (stereo not drawn) -1.58%, COc1cc(C2C(=O)N(C3CCCCC3)CC(=O)N2CCC2=CCCCC2)ccc1OC(C)C (stereo not drawn) 8.09%, COc1cccc(CNC(=O)CSc2nnc(C)c3c(C)n(-c4ccccc4)nc23)c1OC -7.47%, Cc1onc(-c2c(F)cccc2Cl)c1C(=O)Nc1ccc(OC(C)C)cc1 2.19%, COc1ccc(-c2cc(C(F)(F)F)nc(SCC(=O)N3CCCCC3C)n2)cc1OC (stereo not drawn) 10.2%, NC1=N[C@@]2(c3cc(NC(=O)c4ccc(F)cn4)ccc3F)COC[C@@H]2CS1 -4.29%, O=C(Cn1ccc2ccccc2c1=O)NCCC(=O)Nc1ccc(F)cc1F -5.23%, COc1ccccc1N1CCN(C(=O)c2c(C)oc3ncn(CC(C)C)c(=O)c23)CC1 4.78%, CCOc1ccc(Nc2cc(C)nc3nc(Cc4ccc(Cl)cc4)nn23)cc1 3.28%, COc1ccc(S(=O)(=O)c2c(O)c3ccc(C(=O)NCc4ccccc4)cc3[nH]c2=O)cc1 3.67%, CCOC(=O)c1cnc2c(ccc3ccccc32)c1Nc1ccc(OCC)cc1 -8.98%, CCOCCCn1c(=N)c(C(=O)NCc2cccnc2)cc2c(=O)n3cc(C)ccc3nc21 -6.71%, O=C1CCCc2cc(S(=O)(=O)NCC3CCC(C(=O)NCc4ccccc4Cl)CC3)ccc2N1 (stereo not drawn) 3.29%, Cc1cccc(NC(=O)Nc2ccc(Br)cc2)n1 -1.48%, COc1ccc(CCNC(=O)c2cc3c(s2)-c2ccccc2OC3)cc1OC -1.77%, Cc1ccc(NC(=O)CN2C(=O)CCc3cc(S(=O)(=O)N4CCCCC4)ccc32)cc1C 65.6%, Cc1cc(C)cc(-n2c(C)nc3cc(C(=O)NCc4ccccc4Cl)ccc32)c1 -20.1%, O=C(COc1ccccc1F)OCc1cc(=O)n2nc(C3CC3)sc2n1 5.09%

outcome, inactive:
O=C(O)CCc1nnc2cnc3ccccc3n12, O=[N+]([O-])c1cc(-c2nc(-c3ccccn3)no2)ccc1NCc1ccccc1, COc1ccc(NC(=O)C(C)n2nc(-c3cc(C)ccc3C)c3c(c2=O)CCCC3)cc1 (stereo not drawn), Cc1nc2c(C(=O)NCc3ccccc3Cl)cnn2c(C)c1Cc1ccccc1, CCOC(=O)C(=O)Nc1nnc2n1CCS2, Cc1ccc(CNC(=O)Nc2cn(CC(C)C)c(=O)c3ccccc23)cc1, CCn1cc2nc(SCC(=O)Nc3ccccc3F)n(Cc3ccc(C)cc3)c(=O)c2n1, CC(=O)c1ccc(NC(=O)c2cc(-c3ccc4c(c3)OCO4)on2)cc1, Cc1nnc(SCc2ccccc2Cl)c2cc3sccc3n12, O=C(NCCCN1CCN(c2ccccc2F)CC1)c1cc2c(Cl)nc3ccccc3c2s1, CN(C(=O)Cn1cc(S(=O)(=O)N2CCN(c3ccccc3F)CC2)c2ccccc2c1=O)c1ccc(Cl)cc1, CCOC(=O)c1cc(-c2ccccc2)n(CC(=O)NC2CCC(C)CC2)c1C (stereo not drawn), COc1ccc(-c2noc(CSc3nnc(Cc4ccccc4)n3-c3ccccc3)n2)cc1OC, COc1ccc(NC(=O)Cn2c(=O)cc(C)c3c(C)nn(-c4cccc(Cl)c4C)c32)cc1OC, CCOC(=O)c1cnc2c(ccc3ccccc32)c1Nc1ccccc1OC, Cc1ccc2nc(N3CCN(c4cccc(Cl)c4)CC3)c3nnnn3c2c1, CCc1ccc2oc(-c3cccc(NC(=O)c4cc5ccccc5o4)c3)nc2c1, Cc1cc(C)cc(NC2=C(c3ccccc3)C(=O)c3ccccc32)c1, Cc1ccc2oc(=O)c3cc(C(=O)Nc4ccccc4C(N)=O)sc3c2c1, CCc1cccc(C)c1NC(=O)C1CCN(c2nn3c(=O)cc(C)nc3s2)CC1, Fc1ccc(N2CCN(c3ncnc4c3nc3n4CCCCC3)CC2)cc1, COc1cccc(C(=O)Nc2ccc(-n3nncc3-c3ccccc3)cc2)c1

— PubChem BioAssay AID1963576 (National Center for Advancing Translational Sciences (NCATS), 2024)
